From the BET-seq Pho4 binding data (Le et al. 2018)
The other results are listed elsewhere or left out. Values were computed here from the reads of four pooled replicates and scatter widely.

Each sequence was assayed against T1, Pho4 (S. cerevisiae) (UniProt P07270) (assay: relative binding free energy (BET-seq); higher = weaker binding). Details: reference: library average.
T1 sequence: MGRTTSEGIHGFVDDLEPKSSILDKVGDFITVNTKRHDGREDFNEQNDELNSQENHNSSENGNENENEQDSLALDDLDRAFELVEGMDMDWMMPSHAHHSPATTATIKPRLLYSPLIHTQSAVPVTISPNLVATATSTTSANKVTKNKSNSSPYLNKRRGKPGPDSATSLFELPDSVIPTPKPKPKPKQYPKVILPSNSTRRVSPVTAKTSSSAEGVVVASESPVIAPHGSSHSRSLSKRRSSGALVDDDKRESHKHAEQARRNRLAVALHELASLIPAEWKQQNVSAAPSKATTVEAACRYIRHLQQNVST

Sequence	relative binding free energy [kcal/mol]
TAGTGCACGTGGTGCA	-0.25
AAAAGCACGTGATTAT	0.19
TATGGCACGTGCAGAG	-0.11
CGTCGCACGTGAGGGT	0.07
GGGTACACGTGAGAAT	0.29
TGTGCCACGTGACGTT	-0.01
GTAGTCACGTGTCGGG	0.32
TTGCTCACGTGGCGTT	0.14
TCTTTCACGTGTAAAG	0.4
GTGCTCACGTGGGAAG	0.19
AGTGTCACGTGGAAGG	0.08
TTGATCACGTGATGGT	0.34
GGACGCACGTGGGGTA	-0.35
AACTTCACGTGGGTTG	0.16
ATGTTCACGTGACTTG	0.23
GGGTTCACGTGGCGAG	0.24
GAGTACACGTGGAGAT	0.24
GTGGGCACGTGGTAAT	-0.08
CTCCGCACGTGTGGGG	-0.09
TGTATCACGTGTATCA	0.11
GATGGCACGTGGTGCA	-0.09
TCGTTCACGTGTGGGT	0.27
GTGGTCACGTGATTCG	0.26
TTTGGCACGTGATCGG	-0.07
GCGTGCACGTGCGTAG	-0.03
TATTGCACGTGTATCG	0.04

Sequence	relative binding free energy [kcal/mol]
GGTGTCACGTGGGAGG	0.12
TTAGGCACGTGTAGGC	-0.11
GAGCGCACGTGGGGAT	-0.08
ATACGCACGTGTGGCG	-0.01
AACGGCACGTGTGTGG	0.05
AAGTCCACGTGGTATG	0.04
TTTCGCACGTGGTTCT	-0.12
ATTTACACGTGTGTTA	0.11
CTCGTCACGTGCAGGG	0.13
TATTTCACGTGAGGGA	0.26
GGCGGCACGTGCGTGT	-0.17
GTGGTCACGTGTTCAT	0.21
GGTGACACGTGGTAAC	0.07
GTTACCACGTGGGTAG	-0.07
GATGGCACGTGGCGGG	-0.1
TTGGACACGTGTGGAA	0.2
GTGAGCACGTGTGGAA	-0.15
AGGTCCACGTGGTAAG	0.06
TGGTTCACGTGATATC	0.42
ACTTGCACGTGCGTGG	-0.11
ATAGGCACGTGTATTA	-0.04
GCGTGCACGTGGTGCG	-0.14
TTGGGCACGTGCATGG	-0.15
CTATGCACGTGTGGGA	0.01
GTGTTCACGTGCGTGC	-0.05
CGTGACACGTGGTTGC	-0.07

Sequence	relative binding free energy [kcal/mol]
GTTGTCACGTGAGACA	0.25
TTAATCACGTGTTGTA	0
CTATTCACGTGGGCTT	0.13
TTGGGCACGTGACGCA	0.01
TTGGCCACGTGGGAAG	-0.14
GTTGTCACGTGATCGT	0.24
ATAGACACGTGTCGGG	-0.03
TGTTCCACGTGGTTGT	0.02
GTTTGCACGTGTATTC	0.17
TTAGGCACGTGAGAAT	0.15
AAGCTCACGTGTTTTG	0.18
AGATGCACGTGCGTGT	-0.07
CGGGCCACGTGTAGTG	-0.11
CGTCGCACGTGCGGGT	-0.13
AATAGCACGTGAGGTG	0.12
CGTAGCACGTGGGTAT	-0.29
GTCGGCACGTGAGGTG	0.24
CGTGTCACGTGGTCTT	0.03
CGGGGCACGTGATTCT	0.02
GCTGGCACGTGGGGCA	-0.3
AGGGGCACGTGTCGTC	-0.03
TCAGTCACGTGGATTG	0.05
AGGAGCACGTGGATGT	-0.19
AGTATCACGTGATATA	0.19
AATGTCACGTGAAGGG	0.27
GTGGTCACGTGTCTGA	0.1

Sequence	relative binding free energy [kcal/mol]
TATTGCACGTGATTTG	0.09
TTGCGCACGTGCATGT	-0.09
TGTAACACGTGTGGCG	0.08
GTGTACACGTGTGATA	0.17
GGTATCACGTGGGGCA	0.01
TTAGCCACGTGTTGGT	-0.12
GATGGCACGTGTAAGG	0.07
CGGTTCACGTGTTTTA	0.35
AGGGCCACGTGGCCGG	-0.21
TTGCGCACGTGGGTTA	-0.11
TCGGACACGTGGTGGT	-0.03
AATGTCACGTGGTCGG	-0.02
TGTGGCACGTGATATT	0.09
ACGGTCACGTGTCGAT	0.4
TGTATCACGTGGACGT	0.15
CGTTTCACGTGTAAAT	0.33
TAGTGCACGTGGAAAA	0.1
CATTGCACGTGGTGGA	0.04
TGAATCACGTGTTCGG	0.13
GTTTTCACGTGGAAAA	0.33
TTTTACACGTGTTTTG	0.11
TAATTCACGTGTGTAT	0.16
ATGATCACGTGCGAGT	0.06
TTTTACACGTGGAATT	0.28
AGGTGCACGTGTGTTT	0.01
TTGATCACGTGGTTCT	0.11

Sequence	relative binding free energy [kcal/mol]
TCGGGCACGTGTATGA	-0.1
GGTAACACGTGTATGA	0.03
GTTGGCACGTGCGTCG	-0.21
ATTTGCACGTGTTAGT	0.1
ATGTGCACGTGATGTA	0.02
GGGCTCACGTGAGGTC	0.53
AGGGGCACGTGGCCGG	-0.19
AGAGACACGTGTGGTA	0.09
TAAGGCACGTGTAAGG	-0.11
TTTAGCACGTGGCGAT	-0.11
CGGGACACGTGGATTG	-0.06
TCGATCACGTGTGGGA	0.19
ATAGGCACGTGTAGTT	0.02
TGTAACACGTGGCTTG	0.02
GTTGGCACGTGGGGTC	-0.16
ATGAGCACGTGTGAAT	0.06
GGTGACACGTGAGGTA	0.15
TTTTCCACGTGTTACT	0.1
GGTGTCACGTGCATAG	0.07
TGGGGCACGTGCGTGT	-0.16
AGCGGCACGTGTTGGT	-0.04
GGCTGCACGTGAATTG	0.31
ATATTCACGTGGTCTT	0.04
TTTAGCACGTGTAGAA	-0.13
TTATGCACGTGTTCGT	-0.01
GTATCCACGTGGGTAT	0.06

Sequence	relative binding free energy [kcal/mol]
GTTCGCACGTGCTGTG	0.04
TGGTGCACGTGAATGT	0.22
GCAAGCACGTGGGTGA	-0.18
GTTTTCACGTGAGGTT	0.46
TTGACCACGTGATTGG	0.19
CTGGTCACGTGGTTGA	0.23
GCGGGCACGTGTGATA	0.06
TTTTTCACGTGTGTTA	0.34
GGTTACACGTGTAGTA	0.21
GTTAGCACGTGTGTGC	0.04
GTGCGCACGTGAGGGT	0.18
AGTGACACGTGCTGTG	-0.08
AGATGCACGTGATTAT	0.01
GTTGCCACGTGTAATG	0.11
CGCCGCACGTGGGTGG	-0.18
TCTGTCACGTGTTGAT	-0.01
TGGTACACGTGGCATT	0
AGGGCCACGTGAATGG	0.11
GTTTACACGTGTTTGG	0.17
GGTATCACGTGCGGAT	0.16
TGACGCACGTGAGAGT	0.14
GGGCACACGTGTAAGG	0.22
GCGTCCACGTGTGAGG	0.26
AAGTGCACGTGGTGGC	-0.16
CTTGGCACGTGAGGGC	0.08
GGTTTCACGTGTGGAC	0.36

Sequence	relative binding free energy [kcal/mol]
TTATACACGTGGGATC	0.05
GGTTGCACGTGACTGG	0.05
AAGGGCACGTGGCTTA	-0.22
TCTCTCACGTGGTGTG	0.16
TGAGGCACGTGTCGTT	-0.02
ATGGGCACGTGCGGTA	-0.27
ATGTTCACGTGTGATT	0.3
AATTGCACGTGGTTCA	-0.02
TTGAGCACGTGAAAGT	0.2
GAGGTCACGTGCTGTA	0.07
TTGCGCACGTGTGAGT	-0.12
TGTGTCACGTGCGTTC	-0.07
AGTAGCACGTGAGTGT	0.13
GGTCGCACGTGACTGG	0.09
ATTATCACGTGTACGT	0.15
TTGCGCACGTGTTTGG	-0.1
GGTGCCACGTGGTGCT	-0.17
GATGGCACGTGCAGTT	-0.04
TATTGCACGTGTTCTT	0.05
GTGATCACGTGGAGGC	0.1
TAGCGCACGTGGGTCT	-0.3
TGTATCACGTGTTCAT	0.14
GGTGTCACGTGCTTGG	0.01
GGGGTCACGTGGCGGT	0.17
TGTCGCACGTGCTGGG	-0.17
TTGTGCACGTGAACGA	0.21

Sequence	relative binding free energy [kcal/mol]
TGGTCCACGTGGTGAT	-0.02
TTTAACACGTGTTGTC	-0.09
CTAGGCACGTGTTGTA	-0.07
ATCTGCACGTGGTCTG	-0.05
TCATGCACGTGGTGTG	-0.14
TTTTGCACGTGTTTAA	0.07
GGACACACGTGGGAGG	-0.17
TTATGCACGTGTGATC	0.1
ATAATCACGTGGGGTT	0
CTTACCACGTGGGAGT	-0.02
TTCTGCACGTGAGAGG	0.21
ATGTGCACGTGTTTGG	-0.06
GGCGGCACGTGTGCTT	-0.06
ATGTCCACGTGTGGTA	0.02
TTAGTCACGTGTGCAA	0.05
GTTGACACGTGGAGTG	0.07
GTTGCCACGTGGTCTA	0.05
CGTTACACGTGTTGGA	0.14
AATGGCACGTGATTGA	-0.02
AGGTCCACGTGGGGGA	-0.11
AAATTCACGTGTATAT	0.19
GTGCGCACGTGGTATA	-0.15
AGGCTCACGTGTGTTG	0.16
TTATACACGTGTGTGA	0.09
AGTGTCACGTGGGTGT	-0.13
AAGGTCACGTGTTACG	0.06

Sequence	relative binding free energy [kcal/mol]
GTGTACACGTGTGGTT	0.12
CGTTTCACGTGAGCGT	0.36
AAATGCACGTGTCGTT	-0.05
GAGCTCACGTGGAGTG	0.18
ATGAGCACGTGATTTG	0.11
ATTATCACGTGTTACG	0.03
GTTTTCACGTGTGACG	0.34
TGAATCACGTGTTCTG	0.21
TCAATCACGTGGGTTT	0.1
GATAGCACGTGTGGTC	0
GTAGTCACGTGTCGAT	0.21
ATAGGCACGTGTAATG	0.09
ATAGTCACGTGAGTAT	0.24
AGGTGCACGTGGATGG	-0.07
ATGTTCACGTGAGCTG	0.3
TCGAGCACGTGTCGGG	-0.12
GTGATCACGTGTTCTG	0.08
TTTGTCACGTGCAGTT	0.09
GGCTGCACGTGGGGAG	-0.05
GCGGGCACGTGTGGGC	0.13
CGGGTCACGTGAGTGA	0.22
TTATCCACGTGATGAG	0.25
